# Source: the supplement of paper PMC9446081
# Out of some 39,000 compounds screened, about 220 (0.56%) showed activity. The list shows a part of the results.
# System: Escherichia coli K-12 BW25113
# Assay: relative growth (OD600 normalised to plate interquartile mean) (fraction); higher = less growth inhibition, active = 0.2 or less
# Settings: 50 µM; LB; incubation time: overnight (16-24 h)
# 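Further: static incubation at 37 °C against the wild-type strain, values averaged over two biological replicates.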
row,Structure (SMILES),relative growth
1,COc1ccc(CN(C)C[C@@H]2OCCCC[C@@H](C)Oc3ccc(NC(=O)Nc4ccccc4)cc3C(=O)N([C@@H](C)CO)C[C@@H]2C)cc1,inactive: 0.979
2,O=C(C[C@@H]1CC[C@H]2[C@@H](COC[C@@H](O)CN2C(=O)c2ccccn2)O1)NC1CCC1,inactive: 1.03
3,N[C@@]1(C(=O)O)CO[C@H]2[C@H](C(=O)O)[C@H]21,inactive: 0.99
4,Cc1cccc(S(=O)(=O)N2C[C@@H](O)COC[C@@H]3O[C@H](CC(=O)NCc4ccncn4)CC[C@H]32)c1,inactive: 1.01
5,C[C@@H]1CCCCO[C@H](CN(C)C(=O)c2ccccc2)[C@@H](C)CN([C@H](C)CO)C(=O)c2cc(NS(=O)(=O)c3ccccc3)ccc2O1,inactive: 1.01
6,C[C@@H]1CN([C@H](C)CO)C(=O)c2cccc(NC(=O)c3cnccn3)c2O[C@H]1CN(C)S(=O)(=O)c1ccc(F)cc1,inactive: 1.02
7,C[C@@H]1CN([C@H](C)CO)C(=O)Cc2cc(NC(=O)CCC(F)(F)F)ccc2O[C@H]1CN(C)S(=O)(=O)c1cn(C)cn1,inactive: 0.988
8,COCC#Cc1cnc2c(c1)C(=O)N([C@H](C)CO)C[C@@H](C)[C@@H](CN(C)C(=O)Nc1ccccc1OC)O2,inactive: 0.999
9,COc1ccc(S(=O)(=O)N(C)C[C@@H]2Oc3ccc(NS(=O)(=O)c4cccs4)cc3CC(=O)N([C@@H](C)CO)C[C@H]2C)cc1,inactive: 1
10,CCCC(=O)Nc1ccc2c(c1)C(=O)N(C)C[C@H](OC)[C@H](C)CN(Cc1ccc(-c3ccccn3)cc1)[C@H](C)CO2,inactive: 0.989
11,COc1ccc(CN(C)C[C@@H]2OCCCC[C@@H](C)Oc3ccc(NC(=O)Nc4ccc5c(c4)OCO5)cc3C(=O)N([C@H](C)CO)C[C@@H]2C)cc1,inactive: 1.01
12,COC(=O)c1cn(CC(=O)Nc2ccon2)nn1,inactive: 0.982
13,C[C@H](CO)N1C[C@H](C)[C@H](CN(C)CC2CCCCC2)OCCCC[C@H](C)Oc2ccc(NC(=O)CCCCCC(=O)Nc3ccccc3N)cc2C1=O,inactive: 0.945
14,C[C@H](CO)N1C[C@H](C)[C@H](CN(C)Cc2ccc(C(=O)O)cc2)Oc2c(NS(C)(=O)=O)cccc2C1=O,inactive: 0.995
15,COc1ccc(S(=O)(=O)Nc2cccc3c2O[C@@H](CN(C)C(=O)Nc2c(C)noc2C)[C@H](C)CN([C@H](C)CO)C3=O)cc1,inactive: 1.02
16,C[C@@H]1CN([C@H](C)CO)C(=O)CCCn2cc(nn2)CO[C@@H]1CN(C)C(=O)CCCN(C)C,inactive: 0.973
17,C[C@H](CO)N1C[C@H](C)[C@H](CN(C)S(=O)(=O)c2ccccc2)Oc2ccc(NC(=O)c3ccncc3)cc2CC1=O,inactive: 0.988
18,COCC#Cc1ccc2c(c1)O[C@H](CN(C)C(=O)C1CCOCC1)[C@H](C)CN([C@@H](C)CO)S2(=O)=O,inactive: 1.01
19,C[C@@H]1CN([C@@H](C)CO)C(=O)Cc2cc(NC(=O)CCN3CCOCC3)ccc2O[C@H]1CN(C)S(=O)(=O)c1cn(C)cn1,inactive: 1
20,Cc1cccc(NC(=O)C(=O)NCCCO)c1,inactive: 0.803

row,Structure (SMILES),relative growth
1,C[C@@H]1CN([C@@H](C)CO)C(=O)c2ccccc2-c2ccccc2CO[C@H]1CN(C)C(=O)Nc1ccc(-c2ccccc2)cc1,inactive: 0.984
2,Cc1noc(C)c1NC(=O)N(C)C[C@@H]1Oc2ccc(NS(C)(=O)=O)cc2CC(=O)N([C@@H](C)CO)C[C@H]1C,inactive: 0.98
3,Cc1noc(C)c1S(=O)(=O)Nc1ccc2c(c1)CC(=O)N([C@@H](C)CO)C[C@H](C)[C@H](CN(C)Cc1ccc(C(=O)O)cc1)O2,inactive: 1
4,O=C(C[C@H]1C[C@@H]2c3cc(NS(=O)(=O)c4ccccc4)ccc3O[C@@H]2[C@H](CO)O1)NC1CCCCC1,inactive: 0.987
5,O=C(CN1CCOCC1)NCC[C@@H]1CC[C@@H](NC(=O)Cc2ccccn2)[C@H](CO)O1,inactive: 0.99
6,C[C@H](CO)N1C[C@H](C)[C@H](CN(C)S(=O)(=O)c2cn(C)cn2)Oc2ccc(NC(=O)Cn3cnnn3)cc2CC1=O,inactive: 0.975
7,C[N+](C)(C)CCCC[C@@H]1NC(=O)[C@@H]2C[C@H](C(=O)NCCCCCNC(=O)CS)[C@H](c3ccc(O)cc3)N2C1=O,inactive: 1.01
8,COc1ccc(S(=O)(=O)N(C)C[C@@H]2OCCCC[C@H](C)Oc3ccc(NC(=O)NC4CCCCC4)cc3C(=O)N([C@H](C)CO)C[C@@H]2C)cc1,inactive: 1.04
9,Cc1ccc(CSc2nnc(CCN)o2)cc1,inactive: 1.01
10,Cn1c(=O)c2c(nc(Sc3nnc(N)s3)n2C)n(C)c1=O,inactive: 0.967
11,C[C@H]1CN([C@@H](C)CO)C(=O)Cc2cc(NC(=O)Nc3ccc(F)cc3)ccc2O[C@H]1CN(C)Cc1ccc(Oc2ccccc2)cc1,inactive: 1
12,C=CCOC(=O)C1=C[C@@H](c2csc3ccccc23)C[C@@H](OCc2ccc(COC(=O)NCCCCCC(=O)NO)cc2)O1,inactive: 0.923
13,C[C@H](CO)N1C[C@H](C)[C@@H](CN(C)Cc2ccc(-c3ccccc3)cc2)Oc2c(NC(=O)Nc3ccc(F)cc3)cccc2C1=O,inactive: 0.769
14,COc1cccc(NC(=O)N[C@@H]2CC[C@H](CC(=O)N3CCN(C)CC3)O[C@H]2CO)c1,inactive: 0.997
15,COC(=O)CCc1c(C)[nH]c(=S)[nH]c1=O,inactive: 1.01
16,c1ccc(C(c2c[nH]c3ccccc23)c2c[nH]c3ccccc23)nc1,inactive: 0.985
17,COc1ccc(-c2cnc3c(c2)C(=O)N([C@H](C)CO)C[C@H](C)[C@@H](CN(C)C(=O)Cc2ccncc2)O3)cc1,inactive: 0.982
18,C[C@@H]1CN([C@@H](C)CO)C(=O)c2cc(NC(=O)Nc3ccc4c(c3)OCO4)ccc2O[C@H]1CN(C)S(=O)(=O)c1cn(C)cn1,inactive: 0.994
19,C[C@H](CO)N1C[C@H](C)[C@H](CN(C)Cc2ccncc2)Oc2c(NC(=O)Nc3cccc4ccccc34)cccc2C1=O,inactive: 0.942
20,Cc1ccc(S(=O)(=O)Nc2ccc3c(c2)C(=O)N([C@H](C)CO)C[C@@H](C)[C@H](CN(C)C(=O)Nc2ccc(F)cc2)OCCCC[C@@H](C)O3)cc1,inactive: 1

row,Structure (SMILES),relative growth
1,COc1ccc(NC(=O)Nc2ccc3c(c2)C(=O)N([C@H](C)CO)C[C@H](C)[C@H](CN(C)Cc2ccc(Cl)c(Cl)c2)OCCCC[C@H](C)O3)cc1,inactive: 1.01
2,C[C@H]1CN([C@@H](C)CO)C(=O)c2cccc(NC(=O)Nc3ccc(C(F)(F)F)cc3)c2O[C@@H]1CN(C)Cc1ccc(-c2ccccc2)cc1,inactive: 0.978
3,COc1ccc(C#Cc2ccc([C@@H]3[C@@H](CO)N4CCCCN(S(=O)(=O)c5cn(C)cn5)C[C@H]34)cc2)cc1,inactive: 0.995
4,CC(C)NC(=O)Nc1ccc2c(c1)C(=O)N([C@@H](C)CO)C[C@H](C)[C@H](CN(C)S(=O)(=O)c1cccs1)O2,inactive: 1.02
5,Cc1ccc(S(=O)(=O)Nc2ccc3c(c2)C(=O)N([C@H](C)CO)C[C@@H](C)[C@@H](CN(C)Cc2ccncc2)OCCCC[C@@H](C)O3)cc1,inactive: 0.988
6,C[C@@H]1CN([C@@H](C)CO)C(=O)c2cc(NC(=O)NC3CCCCC3)ccc2O[C@H]1CN(C)Cc1ccc(C(F)(F)F)cc1,inactive: 1.03
7,Cc1ccc(S(=O)(=O)N2C[C@@H](O)COC[C@H]3O[C@H](CC(=O)NCc4ccc(C(F)(F)F)cc4)CC[C@@H]32)cc1,inactive: 0.992
8,CC(C)NC(=O)N(C)C[C@@H]1Oc2ccc(NC(=O)Nc3ccc4c(c3)OCO4)cc2C(=O)N([C@H](C)CO)C[C@@H]1C,inactive: 1
9,CN1C(=O)c2cc(NC(=O)c3ccc(C(F)(F)F)cc3)ccc2OC[C@@H]2O[C@@H](CC(=O)NC3Cc4ccccc4C3)CC[C@@H]21,inactive: 1.03
10,Cc1noc(C)c1NC(=O)Nc1ccc2c(c1)C(=O)N([C@H](C)CO)C[C@H](C)[C@H](CN(C)S(=O)(=O)c1ccc(Cl)cc1)OCCCC[C@@H](C)O2,inactive: 0.988
11,Cc1noc(C)c1NC(=O)Nc1ccc2c(c1)C(=O)N([C@H](C)CO)C[C@H](C)[C@@H](CN(C)C(=O)NC1CCCCC1)OCCCC[C@@H](C)O2,inactive: 0.98
12,C[C@@H]1CN([C@H](C)CO)C(=O)c2cc(NC(=O)CCCN(C)C)ccc2O[C@@H](C)CCCCO[C@H]1CN(C)C(=O)Nc1ccc(F)cc1,inactive: 0.969
13,C[C@@H]1CN([C@H](C)CO)S(=O)(=O)c2ccc(C#CC(C)(C)O)cc2O[C@@H]1CN(C)Cc1ccccc1,inactive: 0.997
14,C=CCc1ccccc1OCC(O)CNC(C)C.Cl (stereo not given),inactive: 0.904
15,Cc1noc(C)c1S(=O)(=O)Nc1ccc2c(c1)CC(=O)N([C@H](C)CO)C[C@H](C)[C@H](CN(C)S(=O)(=O)c1ccc(F)cc1)O2,inactive: 0.998
16,Cc1noc(C)c1NC(=O)N[C@@H]1CC[C@@H](CC(=O)NCCCN(C)C)O[C@@H]1CO,inactive: 0.991
17,Cc1noc(C)c1S(=O)(=O)N(C)C[C@H]1Oc2c(NS(=O)(=O)c3cn(C)cn3)cccc2C(=O)N([C@@H](C)CO)C[C@@H]1C,inactive: 0.976
18,C[C@H]1CN([C@@H](C)CO)S(=O)(=O)c2ccc(C#Cc3ccncc3)cc2O[C@@H]1CN(C)S(=O)(=O)c1ccc(F)cc1,inactive: 1.03
19,COc1ccc(NC(=O)N(C)C[C@@H]2OCCCC[C@H](C)Oc3ccc(NS(=O)(=O)c4ccc(C)cc4)cc3C(=O)N([C@H](C)CO)C[C@@H]2C)cc1,inactive: 1.01
20,COc1ccc(NC(=O)N(C)C[C@H]2Oc3ccc(NC(=O)C4CC4)cc3C(=O)N([C@H](C)CO)C[C@@H]2C)cc1,inactive: 0.985
